Results taken from the supplement of paper PMC3334620.
Over roughly 33,000 sequences, “E-score (-0.5 to 0.5)” has its median near -0.036; the highest 2% begin near 0.37. The list shows a part of the results.

Molecular target: T1, Yer064c (UniProt P40041)
T1 sequence: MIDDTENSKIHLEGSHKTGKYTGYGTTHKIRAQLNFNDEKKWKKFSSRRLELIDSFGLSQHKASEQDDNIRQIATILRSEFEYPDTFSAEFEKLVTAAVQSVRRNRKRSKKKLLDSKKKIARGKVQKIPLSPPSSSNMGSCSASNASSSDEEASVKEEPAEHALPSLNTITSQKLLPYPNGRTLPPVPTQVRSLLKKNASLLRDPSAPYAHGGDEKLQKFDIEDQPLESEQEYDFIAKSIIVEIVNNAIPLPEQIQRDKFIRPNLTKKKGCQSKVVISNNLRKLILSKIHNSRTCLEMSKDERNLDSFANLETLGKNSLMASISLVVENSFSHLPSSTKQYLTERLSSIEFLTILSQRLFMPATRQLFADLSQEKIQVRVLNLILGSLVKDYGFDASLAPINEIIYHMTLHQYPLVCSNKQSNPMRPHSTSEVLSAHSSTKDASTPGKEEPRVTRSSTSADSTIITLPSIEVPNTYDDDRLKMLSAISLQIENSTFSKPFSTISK
Assay: PBM E-score (8-mer binding enrichment) (E-score (-0.5 to 0.5)); higher = stronger / more preferred TF binding; most listed sequences are background and not binding sites
Conditions: protein concentration: 200 nM; construct: GST-full length
Procedure, shortened: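 Yeast transcription factors, full-length or as DNA-binding domains, were expressed with a GST tag using PURExpress in vitro transcription/translation. At about 100-200 nM they were applied to universal all-10-mer Agilent arrays, double-stranded by primer extension on fresh or once-stripped slides. Fluorescent anti-GST detected bound protein, and masliner normalised the scans. E-scores for ungapped eight-base words, pooled with reverse complements, came from the Universal PBM Analysis Suite.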

Q: With AAGCCAAC as the sequence, how does the “PBM E-score” value read?
A: -0.149

Q: With AACCAATG as the sequence, how does the “PBM E-score” value read?
A: 0.0133

Q: For AATTATAG, which “PBM E-score” value is on record?
A: 0.121

Q: GCGTATGA was tested. Which “PBM E-score” value did it give?
A: 0.104

Q: Which “PBM E-score” value does the source give for ATCAACAT here?
A: 0.179

Q: CTAGCGAG was tested. Which “PBM E-score” value did it give?
A: -0.0018

Q: For AGGTAAGA, which “PBM E-score” value is on record?
A: 0.0735

Q: ATTTTCAC was tested. Which “PBM E-score” value did it give?
A: 0.0527

Q: With TGCCTCCA as the sequence, how does the “PBM E-score” value read?
A: -0.185

Q: CAGCGTGC was tested. Which “PBM E-score” value did it give?
A: 0.0625

Q: CCAGTCCC was tested. Which “PBM E-score” value did it give?
A: -0.167

Q: How did the “PBM E-score” value turn out when TTCGTCAA was run?
A: 0.0943

Q: CCCCATGC was tested. Which “PBM E-score” value did it give?
A: -0.284

Q: For AAGAACGT, which “PBM E-score” value is on record?
A: 0.161

Q: For CTACTATC, which “PBM E-score” value is on record?
A: 0.113

Q: Which “PBM E-score” value does the source give for ACGGGCAA here?
A: -0.166

Q: For CAGACCCG, which “PBM E-score” value is on record?
A: 0.0251

Q: ATCAGTAC was tested. Which “PBM E-score” value did it give?
A: 0.116

Q: Which “PBM E-score” value does the source give for CAATTCAG here?
A: -0.0647

Q: For GTCTAAAC, which “PBM E-score” value is on record?
A: 0.0866

Q: Which “PBM E-score” value does the source give for CGATCGAC here?
A: -0.0565

Q: ATTCAATA was tested. Which “PBM E-score” value did it give?
A: 0.149

Q: How did the “PBM E-score” value turn out when TAGCATGA was run?
A: 0.2

Q: TTCATCAA was tested. Which “PBM E-score” value did it give?
A: 0.15

Q: How did the “PBM E-score” value turn out when TATTCTAA was run?
A: 0.0714

Q: Which “PBM E-score” value does the source give for AGGATAAG here?
A: -0.204

Q: For CACCTGAG, which “PBM E-score” value is on record?
A: 0.00816

Q: CGAATATC was tested. Which “PBM E-score” value did it give?
A: -0.26

Q: How did the “PBM E-score” value turn out when GCGGCTAA was run?
A: 0.0963

Q: For GACCAGGA, which “PBM E-score” value is on record?
A: -0.146

Q: With TGGGTGAA as the sequence, how does the “PBM E-score” value read?
A: 0.0876

Q: How did the “PBM E-score” value turn out when ACAGGAAT was run?
A: 0.0679

Q: For TCCCAACA, which “PBM E-score” value is on record?
A: -0.129

Q: How did the “PBM E-score” value turn out when CGCTCAAG was run?
A: -0.15

Q: CCTCAACA was tested. Which “PBM E-score” value did it give?
A: -0.0193

Q: How did the “PBM E-score” value turn out when ACCCAGTC was run?
A: 0.124

Q: CGAAGCAA was tested. Which “PBM E-score” value did it give?
A: -0.0916

Q: With CAGTTCCA as the sequence, how does the “PBM E-score” value read?
A: -0.132

Q: With CACACTGC as the sequence, how does the “PBM E-score” value read?
A: 0.0437

Q: For AGTCCTAT, which “PBM E-score” value is on record?
A: 0.306

Q: Which “PBM E-score” value does the source give for GGACTTAA here?
A: 0.188

Q: CGAACCAA was tested. Which “PBM E-score” value did it give?
A: -0.0799

Q: How did the “PBM E-score” value turn out when AAAGTTCG was run?
A: 0.00349

Q: CCCGCGAG was tested. Which “PBM E-score” value did it give?
A: -0.14

Q: How did the “PBM E-score” value turn out when AAAATCAC was run?
A: 0.25

Q: With AAGGTGAA as the sequence, how does the “PBM E-score” value read?
A: 0.00928

Q: AGTCAAGA was tested. Which “PBM E-score” value did it give?
A: 0.414

Q: For GTAGAAAC, which “PBM E-score” value is on record?
A: -0.119

Q: AACCGTAG was tested. Which “PBM E-score” value did it give?
A: -0.205

Q: Which “PBM E-score” value does the source give for ATTTGCTA here?
A: -0.0117

Q: How did the “PBM E-score” value turn out when AAAATTTT was run?
A: 0.211

Q: Which “PBM E-score” value does the source give for CGAAAAAA here?
A: 0.0432

Q: CTTACCTC was tested. Which “PBM E-score” value did it give?
A: -0.0778

Q: With ACGCTGCG as the sequence, how does the “PBM E-score” value read?
A: -0.196

Q: How did the “PBM E-score” value turn out when ATCCCAGC was run?
A: -0.132

Q: Which “PBM E-score” value does the source give for TCAGAGGA here?
A: -0.00214

Q: How did the “PBM E-score” value turn out when CGCTGCAG was run?
A: -0.194

Q: CAAGGCCG was tested. Which “PBM E-score” value did it give?
A: 0.00573

Q: How did the “PBM E-score” value turn out when AAGTAGTC was run?
A: 0.415

Q: How did the “PBM E-score” value turn out when GATGTTAC was run?
A: -0.118

Q: Which “PBM E-score” value does the source give for AGCCACTC here?
A: 0.0575

Q: For GGCATAGA, which “PBM E-score” value is on record?
A: -0.128

Q: How did the “PBM E-score” value turn out when CCGTTTCC was run?
A: -0.336

Q: Which “PBM E-score” value does the source give for CGTCCCTC here?
A: -0.196

Q: Which “PBM E-score” value does the source give for AAGTGGCT here?
A: 0.112

Q: GCAGACTA was tested. Which “PBM E-score” value did it give?
A: 0.309

Q: TAACGTGA was tested. Which “PBM E-score” value did it give?
A: 0.164

Q: With CCGAAAGC as the sequence, how does the “PBM E-score” value read?
A: -0.118

Q: GGGATGGA was tested. Which “PBM E-score” value did it give?
A: -0.24

Q: For CATGTTCG, which “PBM E-score” value is on record?
A: -0.00751

Q: GCATATCA was tested. Which “PBM E-score” value did it give?
A: -0.133

Q: GCCTTTCC was tested. Which “PBM E-score” value did it give?
A: -0.225

Q: For GGAAACCC, which “PBM E-score” value is on record?
A: -0.212

Q: Which “PBM E-score” value does the source give for AAACCAAT here?
A: 0.0147

Q: Which “PBM E-score” value does the source give for GCGTTAAA here?
A: -0.0605

Q: Which “PBM E-score” value does the source give for CAACATGA here?
A: 0.265

Q: Which “PBM E-score” value does the source give for CAGCTAAA here?
A: 0.0583

Q: AACGTATT was tested. Which “PBM E-score” value did it give?
A: -0.12

Q: How did the “PBM E-score” value turn out when GGGGAGAC was run?
A: -0.0271

Q: With AGCAGTAT as the sequence, how does the “PBM E-score” value read?
A: -0.17

Q: For CTTCACGC, which “PBM E-score” value is on record?
A: -0.0498

Q: Which “PBM E-score” value does the source give for ATCCACTA here?
A: 0.0542

Q: Which “PBM E-score” value does the source give for CTCCCGAA here?
A: 0.0249

Q: For CACAGTGC, which “PBM E-score” value is on record?
A: -0.0934

Q: Which “PBM E-score” value does the source give for AAAATGCA here?
A: -0.173

Q: AACTCAGA was tested. Which “PBM E-score” value did it give?
A: 0.164

Q: With CCTTTCCG as the sequence, how does the “PBM E-score” value read?
A: -0.139

Q: With AACGTGAT as the sequence, how does the “PBM E-score” value read?
A: 0.242

Q: Which “PBM E-score” value does the source give for CCGATTGA here?
A: 0.207

Q: For CCATGGCG, which “PBM E-score” value is on record?
A: -0.0642

Q: CCAAAATC was tested. Which “PBM E-score” value did it give?
A: 0.103

Q: For AGACGCCC, which “PBM E-score” value is on record?
A: -0.154

Q: Which “PBM E-score” value does the source give for AAATTTTA here?
A: 0.0344

Q: Which “PBM E-score” value does the source give for GCGCCACA here?
A: -0.278
